Test results: the supplement of paper PMC8512760
This is one part of the list. Single values are uncertain, as repeats are few or missing.

Tests used:
Assay in all cases: cell viability relative to vehicle (% of vehicle); basal-like triple-negative breast cancer lines; higher = less cytotoxic
Conditions in all cases: 10 µM; 72 h
HCC-1143 = system: HCC-1143
HCC-1187 = system: HCC-1187
MDA-468 = system: MDA-468
SUM-149 = system: SUM-149
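Further: stably firefly luciferase-GFP labeled cells in 96-well plates, viability read as luciferase photon flux after d-luciferin addition, treated wells normalized to vehicle wells, single-dose high-throughput screen.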

CC(=CC(=O)OCCCCCCCCC(=O)O)CC1OCC(CC2OC2C(C)C(C)O)C(O)C1O (centres undefined) [Mupirocin]
cell viability (HCC-1143): 75.9
cell viability (HCC-1187): 92.7
cell viability (MDA-468): 107
cell viability (SUM-149): 106

Cc1nc(NC(=O)N2CCCC2C(N)=O)sc1-c1ccnc(C(C)(C)C(F)(F)F)c1 (centres undefined)
cell viability (HCC-1143): 63.6
cell viability (HCC-1187): 74
cell viability (MDA-468): 84.2
cell viability (SUM-149): 71.2

COC(=O)C1=COC(O)C2C(CO)=CCC12 (centres undefined) [Genipin]
cell viability (HCC-1143): 117
cell viability (HCC-1187): 109
cell viability (MDA-468): 97.9
cell viability (SUM-149): 94.6

NC(=O)c1cn(Cc2c(F)cccc2F)nn1 [Rufinamide]
cell viability (HCC-1143): 75.1
cell viability (HCC-1187): 97.9
cell viability (MDA-468): 138
cell viability (SUM-149): 116

OCC(CO)NC1CC(O)(CO)C(O)C(O)C1O (centres undefined) [Voglibose]
cell viability (HCC-1143): 69.5
cell viability (HCC-1187): 84.9
cell viability (MDA-468): 109
cell viability (SUM-149): 138

COc1cc(Nc2ncc3c(n2)-c2ccc(Cl)cc2C(c2c(F)cccc2OC)=NC3)ccc1C(=O)O [MLN8237 (Alisertib)]
cell viability (HCC-1143): 66.2
cell viability (HCC-1187): 52.7
cell viability (MDA-468): 39.3
cell viability (SUM-149): 86.5
